Some of the results follow. At the low end of the ranking, values are background and their order means little.
Each sequence was assayed against T1, GST-Rok-C97-191 (UniProt O34857) (assay: protein binding microarray). Settings: Rok is a gene silencer of Bacillus subtilis; high values mean tight binding; most listed sequences are background and not binding sites; double strand, one strand shown.
T1 sequence: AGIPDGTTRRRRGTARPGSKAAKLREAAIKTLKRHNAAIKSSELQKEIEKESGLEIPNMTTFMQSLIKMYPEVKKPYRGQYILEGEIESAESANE
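Note: rank score from −0.5 (least bound) to 0.5 (best bound).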

| Sequence | binding signal [E-score] |
| --- | --- |
| AGAGCGCA | -0.111 |
| GCACTGCC | -0.181 |
| AGCTTATC | -0.00797 |
| AATCGTAA | 0.0838 |
| TGAGATAA | 0.0668 |
| ACCTCTCA | -0.104 |
| CACCGACA | -0.175 |
| CGACTTAA | 0.0324 |
| CCCACCTC | -0.206 |
| CCCCACAC | -0.197 |
| ATTGGTTA | 0.191 |
| ATCCGATC | 0.0714 |
| CATCTTAG | 0.0146 |
| CCAACTAC | 0.199 |
| GGGTCAGA | 0.00669 |
| AGATACAT | 0.302 |
| ACCCGCGA | -0.0898 |
| ATACGTGC | 0.115 |
| CCGAATCC | -0.176 |
| CCGGCTTC | -0.0836 |
| CACCCGCC | -0.206 |
| CCGTCTGA | -0.11 |

| Sequence | binding signal [E-score] |
| --- | --- |
| CGCCATGC | -0.166 |
| AGTGAACA | -0.102 |
| AGCATAAG | -0.133 |
| AAAATGCT | 0.113 |
| AGCACGGG | -0.186 |
| GGCGTTCA | -0.0817 |
| GCGCATCA | -0.0275 |
| CGCGTCTA | -0.0422 |
| AGCTTTGG | -0.182 |
| ATATTCAC | 0.183 |
| CCCAACCG | -0.0628 |
| CCCCGCCC | -0.247 |
| CCCACTGC | -0.294 |
| CCGTGCGC | -0.17 |
| CAGAGCCC | -0.213 |
| TAGCGCGA | 0.256 |
| CCAGTTTC | -0.105 |
| TCCTGGAA | -0.0754 |
| GGAGTGAA | -0.149 |
| AGTATGAT | 0.282 |
| AACTCGTG | 0.0143 |
| CCCCATAA | -0.0637 |

| Sequence | binding signal [E-score] |
| --- | --- |
| AGTGTCAT | -0.236 |
| TATAGGAA | 0.117 |
| AGAAGACT | -0.0198 |
| GATATAGA | 0.244 |
| AAGAGTCC | -0.17 |
| GGTTCCAC | -0.176 |
| ATTACAAG | 0.141 |
| AGGCTTCG | -0.125 |
| TCATGCAA | -0.114 |
| CTTCTGTC | -0.0833 |
| AACACAGC | -0.0594 |
| GATGTTAC | 0.23 |
| AGAGGTCA | -0.249 |
| ACATAGCG | 0.117 |
| ATCGAACG | -0.0525 |
| GACGAGGC | -0.258 |
| CACCAACC | -0.296 |
| TAACGACA | 0.172 |
| CACCTATA | 0.223 |
| CGATCCTC | -0.38 |
| CGTGTATC | 0.136 |
| GAATGGGC | -0.131 |

| Sequence | binding signal [E-score] |
| --- | --- |
| CATTGTCA | -0.0136 |
| ACAAATTC | 0.178 |
| AGAAGACG | 0.0323 |
| ACTGTTTC | -0.127 |
| ATAGTAGC | 0.378 |
| GACCGCCA | -0.292 |
| AATGGAGT | 0.077 |
| ATTCCGAG | -0.0113 |
| TACATACA | 0.253 |
| ATGAACAT | 0.2 |
| CCAAAATA | 0.148 |
| CTCATAGA | 0.0293 |
| CTCACTGA | -0.129 |
| CTAGAAAA | 0.312 |
| CTGCGGTA | 0.26 |
| GTACCACA | 0.0685 |
| ATTGGGTA | 0.144 |
| AAGACCTG | -0.0829 |
| AAGCAGCT | -0.124 |
| CTCTTCTA | 0.0541 |
| ACCGAAGC | -0.0987 |
| ACCTAAGG | -0.016 |

| Sequence | binding signal [E-score] |
| --- | --- |
| CCGTGAAA | -0.0516 |
| GCCCGACA | -0.299 |
| CTAGATTA | 0.312 |
| CATCGTGA | -0.0916 |
| AACGCATA | 0.0836 |
| AGATGTAG | 0.331 |
| AAGCGCTC | -0.098 |
| ACCCCGCG | -0.206 |
| AAATGTCG | -0.0895 |
| AACTTGTG | 0.0787 |
| TTGGAAAA | -0.00253 |
| ACTCCCCC | -0.25 |
| AGCTGTAA | 0.0485 |
| GACCAGAC | -0.182 |
| GTGTCTGA | -0.0244 |
| CCTGGATA | -0.0341 |
| AATAACCA | 0.0952 |
| TAAGACGA | -0.141 |
| GGGTACTA | 0.118 |
| CGAGGTGC | -0.245 |
| CACTGGTC | -0.298 |
| GCATGCTA | 0.0693 |

From article PMC6212790
